According to the RNAGym collection of RNA variant scans (doi:10.1093/nar/gkz1192):
Read counts are not given, so values of variants with three or more changes are uncertain.

B1: CPEB3 Ribozyme (parent)
chain: UAACAGGGGGCCACAGCAGAAGCGUUCACGUCGCAGCCCCUGUCAGAUUCUGGUGAAUCUGCGAAUUCUGCUGUAUAUCUC

Variants of: B1
Test: self-cleavage, relative activity (ratio to wild type); higher = more cleavage; in vitro, sequencing
Summary of the method: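 Relative activity was defined as the cleaved/total read fraction for a variant divided by the same fraction for the unmutated ribozyme. CPEB3 self-cleaving ribozyme libraries were made by rounds of error-prone PCR, barcoded, and transcribed in vitro with T7 RNA polymerase for 5 hours at 37°C, and cleavage ran through transcription plus a 15 min DNase I step before EDTA. Illumina sequencing of template-switched reverse transcripts gave the reads, and DNA sequencing mapped the barcodes. Averages come from three batches, using variants with at least 5 reads.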

| Variant | self-cleavage |
| --- | --- |
| U54C G61A U66C | 0.38 |
| A56U A65G U72A U74A U78C | 0.28 |
| U54C U60A U76A | 0.7 |
| A57G U72A U74A | 1.08 |
| A56G U58A U66C | 0.17 |
| G52U U54G U78C | 1.06 |
| U51C G55C U58C | 0.25 |
| U51C U54C U76A | 1.15 |
| U51A U72G U76C | 1.06 |
| U51A A57G U80C | 0.38 |
| A57G G73A U80C | 1.29 |
| A57G A64G U76A | 0.58 |
| G53A G63C C71A | 0.31 |
| U54C U58C U69A | 0.23 |
| A56U A57U U69C | 0.42 |
| U51A A64G A77U | 0.94 |
| U51A U66C U69C | 0.42 |
| G52A U69A U78C | 0.78 |
| A57G U60A A64U U72C | 0.27 |
| A56G A57G A64G U80A | 0.35 |
| A56G U60C U66A | 0.17 |
| U51C U69C G73A | 0.69 |
| A57G U72C G73A U76C | 1.22 |
| A57G A77G U80C | 0.43 |

| Variant | self-cleavage |
| --- | --- |
| U51C A65U A77U | 0.25 |
| U51C U54C A64U G73A | 0.86 |
| A57G U58C U80A | 0.37 |
| U54C A57G U66C U67C U69A U76C | 0.14 |
| A56U U58C U66C | 0.46 |
| U54C U60C U76C | 0.57 |
| U51C U58C U74C U80C | 0.72 |
| U51C G73C U78A | 1.26 |
| U54C A65G A77G | 0.35 |
| U51A U78C U80G | 1.2 |
| U51C U60G U69C | 0.16 |
| G55U C59G U60C A75U | 0.17 |
| A57G U60C U67C | 0.24 |
| U51C A64G G73A | 0.86 |
| A56C A57G U60C | 0.19 |
| U54C U66G A77G | 0.33 |
| U51A U60C A77G | 0.38 |
| U54C U72A U74C | 1.16 |
| U51A A65U U72C | 0.45 |
| G52A A65G U80C | 0.67 |
| U51A U58C U80C | 0.37 |
| U58A U67C C68U U72C | 0.16 |
| U54A G63A U66C U76C | 0.4 |
| U51A A64U A65U U66C U76A A77G | 0.1 |

| Variant | self-cleavage |
| --- | --- |
| A56G A65G C68A | 0.48 |
| A56G A57G U74C | 0.5 |
| U51A U74A U80A | 1.27 |
| U51A U54C U60C U72A U78C | 0.63 |
| A56G C62U U74G | 0.14 |
| U54G U58C U76C | 0.24 |
| A56G U60C U69A | 0.21 |
| U51C A64U U72C | 0.57 |
| G55U A64G U66C | 0.19 |
| A56U U58C U69C U78A | 0.13 |
| U54C A56G U69C | 0.23 |
| U51C A56U U58A A64U | 0.15 |
| A57U U66C A77U U80C | 0.24 |
| A56U G63U U67G U76A | 0.31 |
| G52C C62U U67C C71A | 0.47 |
| G52A A56U U66C G70U | 0.26 |
| U51G A64U U74A | 0.42 |
| U54C A64U U78C | 0.25 |
| U51A U54A A65G | 0.54 |
| A56G A64G U69A | 0.41 |
| U54C G61A U67A | 0.24 |
| U54A G61C A65G | 0.23 |
| U54C U60C U67C | 0.23 |
| A56G C59A A65U U69C | 0.24 |

| Variant | self-cleavage |
| --- | --- |
| U54A U67C U69A U76C | 0.54 |
| G52U U69A U72C C79U U80C | 0.3 |
| U51C U67C C68G | 0.54 |
| A56G G63A U69C | 0.37 |
| A56G A64G G70A | 0.48 |
| U51A U60C U69A G70U U72C U76C | 0.45 |
| U51A U58C U72A | 0.49 |
| U51A A57G U60C | 0.59 |
| G52U U60A U78C | 0.73 |
| U51C A56U U58C | 0.22 |
| U51C G55C G70C | 0.24 |
| A57G U66A U72A | 0.47 |
| U51G G73A U74C U78A | 1.32 |
| U51C U74C U80C | 1.26 |
| U51C A56G A65C | 0.2 |
| A57U A64G U78C | 0.55 |
| G53U U54C U72C | 1.09 |
| A57G U60C U72C | 0.42 |
| A56U A65G U72A | 0.33 |
| U58A U74C U76A | 0.62 |
| U54A G61A U67A C68A | 0.42 |
| A57G U69A U76C | 0.7 |
| U51A G53C A57G | 0.88 |
| U51C A64U U74A | 0.39 |

| Variant | self-cleavage |
| --- | --- |
| U51C G63U U67C U72C | 0.45 |
| U54C A56U C62U A65U C71U A77U | 0.06 |
| U54C A64G A75C A77U | 1.15 |
| U51C A57G U78A | 1.05 |
| U54G U60C U69A U72C | 0.19 |
| A56G G63A U74C | 1.2 |
| U54C A75U C79G | 1.21 |
| U51A U60A U80C | 0.87 |
| U54C C62U U80C | 0.22 |
| U51C A56G A65U U72C | 0.47 |
| A57G A64G U78A | 1.15 |
| A56U A75G U78A | 0.6 |
| U51C U66A U67C | 0.3 |
| U51C U54C C81U | 1.17 |
| U51G A65G U72C U80C | 0.6 |
| A56G A64U A75G U78C | 0.39 |
| A57G U58A G63C G70U | 0.23 |
| U58C A64G U72C U78C | 0.69 |
| A57U U69C U78C | 0.47 |
| U54C A64G U80A | 1.14 |
| A56U C59A U74C | 0.25 |
| U54C U60C C68U U78A | 0.42 |
| A57U C68U U72C | 0.46 |
| A56C A77G U78C | 0.4 |

| Variant | self-cleavage |
| --- | --- |
| U51G A56G U58C | 0.17 |
| G52C A56G U80A | 1.21 |
| G55U U69G U78C | 0.68 |
| U51A U72C U80C | 1.32 |
| A56G A64U U69C U72A | 0.44 |
| U51C U58C U80A | 0.36 |
| U54G U72A U78G | 1.01 |
| A56G A65G U67C A75G U80A | 0.12 |
| U54A U60C U67C | 0.64 |
| A57U U58C U76C | 0.21 |
| A56G A65U U66C U67A U80A | 0.22 |
| U51C A56U U78C | 0.45 |
| U54A A65C C68A | 0.4 |
| G52A U67C U72A | 0.22 |
| U51G U54A G63A | 0.59 |
| U51C U60G U67C A77G | 0.14 |
| U54C U72A U76C | 1.02 |
| U51C A64G A75U | 0.95 |
| G52A A65G U78G | 0.47 |
| A56U U74C A75C | 0.96 |
| U54G U66C U78C | 0.21 |
| U51A U60A A64G | 0.72 |
| U51C A56G U58C | 0.44 |
| G52U U54C U69G | 0.97 |

| Variant | self-cleavage |
| --- | --- |
| A57G U69A U78C | 0.5 |
| A57C A64U U66C U67C U78C | 0.17 |
| U51C U66C U80A | 0.61 |
| A56U A57C U60A U72G U76C | 0.18 |
| U51G A64G U66C U78C | 0.14 |
| G52U A56G U78C | 1.22 |
| U51C G63U A64U | 0.35 |
| A56G A64G U69C A75U | 0.6 |
| U51C U54A A64U C68U | 0.35 |
| A56G C71A U78C | 0.15 |
| A56U U67C G70C | 0.22 |
| U54A U69C U78C | 1.17 |
| A57G U58A U78C | 0.23 |
| G52C U69C U80C | 0.76 |
| U54C A64G A75U | 1.04 |
| U51A G63U A64G A65G | 0.23 |
| U54C U72G G73A | 1.24 |
| U51C U54A U58C U74C | 0.32 |
| U54C A64G U72C | 0.52 |
| U51C A65G U69C A77G | 0.55 |
| G52A U54A G55C | 1.12 |
| A56U C62U U69A | 0.34 |
| U51A U60C U76G U80C | 0.33 |
